The source of these data is PubChem BioAssay AID1159614 (National Center for Advancing Translational Sciences (NCATS), 2016).

Hit rate of the full screen: of about 45,000 compounds, about 65 (0.1%) were called active. Calls come from the whole dose curve; as a rule, active = well fitted activation curve with a large enough effect; inconclusive = small, poorly fitted or top-dose-only effect; inactive = no such curve, though single readings can be large or run the other way. This is one part of the list.

Sequence of UniProt P54803 (P54803 whole entry, looked up): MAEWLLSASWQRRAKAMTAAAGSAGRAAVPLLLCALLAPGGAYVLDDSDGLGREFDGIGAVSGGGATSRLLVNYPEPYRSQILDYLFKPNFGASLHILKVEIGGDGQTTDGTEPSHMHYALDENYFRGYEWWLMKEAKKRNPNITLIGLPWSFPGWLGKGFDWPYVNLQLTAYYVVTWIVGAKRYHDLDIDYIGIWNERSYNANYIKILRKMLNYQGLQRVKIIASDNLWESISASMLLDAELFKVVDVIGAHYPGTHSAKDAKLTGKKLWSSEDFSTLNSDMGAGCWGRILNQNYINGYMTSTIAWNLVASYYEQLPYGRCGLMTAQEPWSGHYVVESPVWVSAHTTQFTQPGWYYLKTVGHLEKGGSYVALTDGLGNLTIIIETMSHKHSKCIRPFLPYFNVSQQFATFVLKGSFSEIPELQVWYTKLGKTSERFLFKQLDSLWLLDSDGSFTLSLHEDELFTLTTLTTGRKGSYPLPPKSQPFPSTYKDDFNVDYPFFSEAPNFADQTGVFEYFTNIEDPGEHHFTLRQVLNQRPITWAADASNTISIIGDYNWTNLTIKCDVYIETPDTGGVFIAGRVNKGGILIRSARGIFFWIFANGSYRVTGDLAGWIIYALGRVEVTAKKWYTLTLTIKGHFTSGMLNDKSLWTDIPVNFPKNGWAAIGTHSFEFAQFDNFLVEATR

For this assay, the target named is Galactocerebrosidase (Homo sapiens) (UniProt P54803). Description: A Novel Cell-Based Assay to Identify Small Molecules for B -Galactocerebrosidase. Note: 0% is about no effect; nearly all actives have a fitted effect of over 65% in size. Particulars: 145M-Twi-hGALC-G270D cells (Twitcher mouse brain line with human GALC G270D), HMU-beta-Gal fluorescence, 48 h; series mostly up to 57.5 µM; activation: at the top concentration. In short, it runs like this:
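Live 145M-Twi cells (Twitcher mouse brain-derived, GALC-null) stably expressing human GALC-G270D, with a wild-type GALC line, were compound-treated. Residual GALC activity was then read as fluorescence from 0.1 mM final HMU-β-gal at pH 5.2; higher signal means activation.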
As to `COc1ccc(-n2cc(-c3ccccc3)c3c(NC4CCCC4)ncnc32)cc1`, the “activation” value is inactive: -8.65%.
To `Cc1cccc(Oc2nc3c(c(=O)n(C)c(=O)n3C)n2Cc2ccccc2)c1C` belongs inactive: -11.6%; to `COc1ccc2sc(N(Cc3cccnc3)C(=O)COc3ccccc3)nc2c1`, inactive: -9.62%.
To `COc1ccc(C(=O)Nc2nnc(C(C)C)s2)cc1OC` belongs inactive: -26.5%.
For the compound `COc1cc(NC(=O)Cn2c(=O)n(CC3CCCO3)c(=O)c3ccccc32)cc(OC)c1` (configuration not stated), the “activation” value was inactive: -16.9%.
Turning to `CCOc1ccc(CCNc2nc3ccccc3n3c(C)nnc23)cc1OCC`, the “activation” value was inactive: -14.4%.
Next, `Cc1cc(C)cc(NC(=O)Nc2nnc(N(C)C3CCCCC3)s2)c1`: inactive: -9.38%.
With `COc1ccccc1-c1noc(CCCC(=O)NCc2ccco2)n1`, the “activation” value is inactive: -22.4%.
Next, `COc1ccccc1Cc1nc2ccccc2nc1SCC(=O)Nc1cc(Cl)ccc1OC`: inactive: -5.71%; `Cc1ccc(NC(=O)c2cc3nc(-c4ccccc4)cc(-c4ccccc4)n3n2)cc1`: inactive: -12.6%; `CCCCc1nn2c(=O)cc(COC(=O)c3ccc(NC(=O)C(CC)CC)cc3)nc2s1`: inactive: -16.7%.
On to `Cc1ccc(CNC(=O)c2cnn(-c3cccc(C)c3)c2C2CCN(C(=O)OC(C)(C)C)CC2)cc1`, for which the “activation” value is inactive: -0.906%.
In the case of `CC(=O)c1ccc(NS(=O)(=O)c2ccc(-c3cnc(C4CC4)o3)cc2)cc1`, the “activation” value was inactive: -3.74%.
With `CCC1CCCCN1S(=O)(=O)c1cc(C(=O)Nc2ccc(C)c(F)c2)ccc1F` (configuration not stated), the “activation” value is inactive: -11.8%.
`CCOCCCn1c(=N)c(C(=O)NC2CCCC2)cc2c(=O)n3cc(C)ccc3nc21`: the “activation” value is inactive: -18.4%.
Regarding `COc1ccc(CCNC(=O)c2ccc(Cn3c(=O)c4ccccc4n(Cc4cccc(C)c4)c3=O)cc2)cc1OC`, the “activation” value was inactive: -7.94%.
Consider `CCn1cnc2c(=O)oc3ccc(S(=O)(=O)Nc4ccc(OC)cc4)cc3c21`, for which the “activation” value was inactive: -11.3%.
To `CCOc1ccc(NC(=O)C2CCCN(S(=O)(=O)c3c(C)noc3/C=C/N(C)C)C2)cc1` (configuration not stated) belongs inactive: -35.1%; to `CCOC(=O)C1=C(CN2CCN(c3ccc(OC)cc3)CC2)NC(=O)NC1c1ccc(Cl)cc1` (configuration not stated), inactive: -6.51%.
With `Cc1cc(CN2CCN(c3cccc(C)c3C)CC2)cs1`, the “activation” value is inactive: -16.1%.
With `Fc1ccc2[nH]c(-c3cccs3)cc2c1`, the “activation” value is inactive: -16.5%.
`CC(C)Cn1c(=O)c2sccc2n2c(CCCC(=O)N3CCN(c4ccc(F)cc4)CC3)nnc12`: the “activation” value was inactive: -13.8%.
Regarding `COc1cccc(-n2c(SCC(=O)Nc3nnc(C)s3)nc3c([nH]c4ccccc43)c2=O)c1`, the “activation” value was inactive: -6.15%.
Turning to `CCc1ccccc1NC(=O)c1nnn(Cc2ccc(Cl)cc2)c1N`, the “activation” value is inactive: -24.2%.
As for `CCOC(=O)c1c(S(=O)(=O)N2CCC(C(=O)Nc3ccc(C)cc3C)CC2)c(C)n(C)c1C`, the “activation” value is inactive: -13.4%.
As for `Cc1cc(C)cc(NC(=O)c2cnc3sc(N4CCCC4)nn3c2=O)c1`, the “activation” value was inactive: -12.8%.
Turning to `COCCNC(=O)CSc1nc(-c2ccccc2)[nH]c1-c1ccc(OC)cc1`, the “activation” value is inactive: -21.1%.
Regarding `Cc1ccc(Cn2cc(C(=O)c3ccc4c(c3)OCO4)c(=O)c3cc(C)ccc32)cc1`, the “activation” value is inactive: -20.6%.
As for `COc1ccc(C)cc1NC(=O)N1CC(C)Sc2ccccc21` (configuration not stated), the “activation” value is inactive: -8.23%.
Consider `Cc1ccc(-c2nc(CSc3nncn4c3cc3occc34)c(C)o2)cc1`, for which the “activation” value is inactive: -11.2%.
In the case of `NCCc1nc2cccnc2n1-c1ccccc1`, the “activation” value is inactive: -22.5%.
`CC(C)(C)C(O)/C=C/c1ccc2c(c1)OCO2` (configuration not stated): the “activation” value is inactive: -13.7%.
For the compound `O=C(Nc1cccc(C(F)(F)F)c1)c1cc2nc(-c3ccc4c(c3)OCO4)cc(C(F)(F)F)n2n1`, the “activation” value was inactive: -7.53%.
Regarding `CCOC(=O)N1CCC(NC(=O)c2cnn(-c3cccc(F)c3)c2-n2cccc2)CC1`, the “activation” value is inactive: -2.2%.
`Cc1c(Cl)cccc1NC(=O)C1CCCN(c2ncnc3onc(C)c23)C1` (configuration not stated): the “activation” value was inactive: -7.73%.
As to `CC1CCN(S(=O)(=O)c2ccc3c(c2)c(=O)c(C(=O)NC(C)c2ccccc2)cn3C)CC1` (configuration not stated), the “activation” value is inactive: -19%.
Take `CN(CC(=O)Nc1ccccc1F)S(=O)(=O)c1ccc2c(c1)c(=O)n(C)c(=O)n2C`: the “activation” value was inactive: -6.87%.
Take `COc1ccc(CCC(=O)NCc2nc3cccnc3n2Cc2ccc(F)cc2)cc1`: the “activation” value is inactive: -0.481%.
Next, `Cc1ccc(Cl)cc1N1CCN(C(=O)c2ccc3c(c2)CCN3S(=O)(=O)c2ccccc2)CC1`: inactive: -6.06%.
Next, `Cc1ccc(-c2nnc(Nc3cccc(O)c3)c3ccccc23)cc1S(=O)(=O)NCC1CCCO1` (configuration not stated): inactive: -10.2%; `NS(=O)(=O)c1ccc(CCNc2ncnc3c2cnn3-c2cccc(Cl)c2)cc1`: inactive: -9.43%.
`O=C(NCc1ccccc1Cl)c1ccc2c(c1)N(Cc1ccccc1)C(=O)CS2`: the “activation” value was inactive: -11.9%.
As to `O=C(NCCc1ccccc1)C1CCN(Cc2cc3ccccc3n2Cc2cccc(Cl)c2)CC1`, the “activation” value is inactive: -5.55%.
As to `COc1ccc(CNC(=O)c2cc(=O)[nH]c3ccc(S(=O)(=O)N4CCCC4)cc23)c(OC)c1`, the “activation” value was inactive: -11.7%.
To `O=C(NCCc1ccccc1)c1ccc2c(c1)N(Cc1ccccc1)C(=O)c1ccccc1S2(=O)=O` belongs inactive: -10.1%.
Next, `CCOc1cc(C(=O)Nc2cccc3cccnc23)cc(OCC)c1OCC`: inactive: -10.3%; `Cc1cc(NC(=O)CSc2nc(-c3ccccc3C)nc3c2c(=O)n(C)c(=O)n3C)no1`: inactive: -8.33%.
As for `COc1ccc(Cl)cc1NC(=O)c1ccc2c(c1)CCN2S(C)(=O)=O`, the “activation” value is inactive: 0.971%.
For `COc1cccc(Nc2sc(C(=O)c3ccc(Cl)cc3)c(N)c2C(=O)NCc2ccc(C)cc2)c1`, the “activation” value is inactive: -24%.
For `CCOC(=O)CN(Cc1ccccc1)C(C(=O)NC1CCCCC1)c1ccc(OC)cc1` (configuration not stated), the “activation” value was inactive: -15.6%.
`CC(=O)c1cccc(NC(=O)C(CC(C)C)NS(=O)(=O)c2ccc3c(c2)CCN3C(C)=O)c1` (configuration not stated): the “activation” value was inactive: -0.699%.
Regarding `Cc1ccc(Nc2nc3ccccc3c3nnc(C)n23)c(C)c1`, the “activation” value is inactive: -10.6%.
For the compound `COc1ccc(-c2cc3nc(C)c(CCC(=O)N4CCN(c5ccc(F)cc5)CC4)c(C)n3n2)c(OC)c1`, the “activation” value was inactive: -39.2%.
To `COc1ccc(NC(=O)c2c(C)oc3ccc(O)c(CN4CCN(Cc5ccccc5)CC4)c23)cc1Cl` belongs inactive: 4.5%.
As to `COc1ccccc1OCC(=O)NC1CC(=O)N(c2ccc3c(c2)OCCO3)C1` (configuration not stated), the “activation” value is inactive: -3%.
As for `CC(=O)c1cccc(Nc2cc(C)nc3nc(Cc4ccccc4)nn23)c1`, the “activation” value was inactive: -8.85%.
In the case of `CCCCN(CCCC)CCNC(=O)CN1C(=O)CSc2ccc(S(=O)(=O)N3CCOCC3)cc21`, the “activation” value is inactive: 1.47%.
For the compound `Cc1cccc(NC(=O)Cn2nc3c4ccccc4n(Cc4ccccc4)cc-3c2=O)c1`, the “activation” value was inactive: -9.11%.
For the compound `COc1ccc(-n2nc(C(=O)Nc3ccc(Cl)cn3)c3c4ccccc4n(C)c3c2=O)cc1`, the “activation” value was inactive: -18.7%.
To `O=C(Nc1cccc(C(F)(F)F)c1)N1CC2CCCN2c2ccccc21` (configuration not stated) belongs inactive: -6.96%.
To `COc1ccc2cc(-c3nnc(Nc4ccccc4)s3)c(=O)oc2c1` belongs inactive: -2.49%; to `CCOC(=O)c1c(C)n(-c2ccccc2)c2ccc(OC(=O)c3cccc(C)c3)cc12`, inactive: -1.29%; to `COc1cccc(CNC(=O)c2ccc3c(=O)n4nc(Nc5ccccc5)sc4nc3c2)c1`, inactive: -14.4%.
To `CC(=O)c1cccc(NC(=O)Nc2nnc(N3CCCC3)s2)c1` belongs inactive: -8.69%; to `CC(=O)c1cc(-c2ccc(F)cc2)n(CC(=O)NC2CCC(C)CC2)c1C` (configuration not stated), inactive: -5.09%.
Take `Cc1oc2ncn(C)c(=O)c2c1C(=O)NCCCN1CCCCC1C` (configuration not stated): the “activation” value is inactive: 0.551%.
In the case of `CCCOc1ccc(CNC(=O)c2ccc(C)c(-n3c(C)nc4cccnc43)c2)cc1`, the “activation” value is inactive: -12%.
Next, `O=C(O)c1cc(O)c(O)c(O)c1`: inactive: -12.8%; `COc1ccc(-n2nc(C(=O)O)c(=O)n(C)c2=O)cc1`: inactive: -5.23%.
Regarding `CCN1CCN(C(c2ccc(C)cc2)c2c(O)cc(C)n(Cc3ccco3)c2=O)CC1` (configuration not stated), the “activation” value is inactive: -12.7%.
As for `CN(Cc1ccccc1)S(=O)(=O)c1ccc2[nH]c3c(c2c1)CCCCC3`, the “activation” value is inactive: -44.1%.
For the compound `Cc1ccc(N2CCN(C(=O)c3cnn(-c4ccc(F)cc4F)c3C3CCN(C(=O)OC(C)(C)C)CC3)CC2)c(C)c1`, the “activation” value is inactive: 2.99%.
As to `Cc1ccccc1C(=O)OCc1cc(=O)n2nc(C(C)C)sc2n1`, the “activation” value was inactive: -23.7%.
As to `Nc1ccc(N=Nc2ccccc2)c(N)n1`, the “activation” value is inactive: -6.27%.
Next, `COc1cc(OC)c(N(C)C(=O)c2cn(C3CCCC3)c(=O)c3c2c2ccccc2n3C)cc1Cl`: inactive: -18%; `CC(C)C1C(=O)Nc2ccc(S(=O)(=O)NCCc3ccc(Cl)cc3)cc21` (configuration not stated): inactive: -19.5%.
Regarding `O=P(O)(O)C(O)(Cc1cccnc1)P(=O)(O)O`, the “activation” value is inactive: -17.2%.
To `COc1ccc(Cl)cc1NC(=O)CN1C(=O)C(C)(C)c2cc(S(=O)(=O)N3CCCCC3)ccc21` belongs inactive: -8.66%.
For the compound `Cc1ccccc1CNC(=O)c1oc2c(c1C)-c1[nH]ncc1CC2`, the “activation” value is inactive: -8.92%.
In the case of `Cc1ccc2nc(Cl)c3cc(C(=O)N4CCCCC4C)sc3c2c1` (configuration not stated), the “activation” value was inactive: -5.69%.
Take `Cc1ccccc1Nc1nn2c(=O)c3ccc(C(=O)NCCc4ccc(Cl)cc4)cc3nc2s1`: the “activation” value is inactive: -3.95%.
To `Cc1ccsc1CN(C(=O)c1oc2ccc(Br)cc2c1C)C1CCS(=O)(=O)C1` (configuration not stated) belongs inactive: -13.6%; to `Cc1cn(C)c(CC(=O)NCc2ccccc2)c1C(=O)O`, inactive: -9.28%; to `CCOc1ccc(Nc2c(S(=O)(=O)c3ccc(Cl)cc3)cnc3ccc(OCC)cc23)cc1`, inactive: -10.3%.
On to `CCN1c2ccccc2-c2nc(SCC(=O)NCc3ccc(Cl)cc3)ncc2S1(=O)=O`, for which the “activation” value is inactive: -15.2%.
Take `CCOc1ccc(C2c3c(oc4ccc(C)cc4c3=O)C(=O)N2CCCN2CCOCC2)cc1` (configuration not stated): the “activation” value is inactive: 0.348%.
`Cc1cc(N2CCN(C)CC2)nc2ccc(NC(=O)Nc3cccc(Cl)c3)cc12`: the “activation” value is inactive: 0.436%.
Next, `Cc1cccc(-n2ncc(C(=O)N3CCN(c4ccc(C)cc4C)CC3)c2C2CCN(C(=O)OC(C)(C)C)CC2)c1`: inactive: 0.0204%; `O=C(NCCN1CCN(c2cccc(Cl)c2)CC1)Nc1ccccc1C(F)(F)F`: inactive: -9.98%.
As to `Cc1ccc(CNc2nc(-c3ccco3)nn2S(=O)(=O)c2ccc3ccccc3c2)cc1`, the “activation” value was inactive: -2.31%.
As for `O=C(CSc1ncc(-c2ccccc2)[nH]1)Nc1ccc(Cl)cc1`, the “activation” value was inactive: -11.4%.
Next, `O=C(CC1C(=O)N(c2ccccc2)C(=O)N1CCc1cccs1)Nc1ccc(F)cc1` (configuration not stated): inactive: -14.3%.
On to `O=C(CCCn1c(=O)c2cccn2c2cccnc21)NCc1ccccc1Br`, for which the “activation” value is inactive: 9.49%.
As for `CSc1ncc(C(=O)N2CCN(c3cccc(Cl)c3)CC2)c(C)n1`, the “activation” value was inactive: -3.23%.
Next, `CCOc1ccc(CCNC(=O)Cn2nnc(-c3ccccc3Cl)n2)cc1OCC`: inactive: -1.93%; `Cc1c(C)n(Cc2ccc(F)cc2)c2ccc(C(=O)NCc3ccco3)cc12`: inactive: -9.72%.
Regarding `O=C(Cn1c(=O)nc(-c2ccccc2)c2cc(Cl)ccc21)N1CCN(c2ccccc2F)CC1`, the “activation” value was inactive: -3.5%.
